According to the RNAGym collection of RNA variant scans (doi:10.1101/gad.245936.114):
Variants at the background level are over-represented here.

B1: tRNA (parent)
chain: CUCUCGGUAGCCAAGUUGGUUUAAGGCGCAAGACUUUAAUUUAUCACUACGAAAUCUUGAGAUCGGGCGUUCGACUCGCCCCCGGGAGAUUUUUUCCUCGAGCAA

Variants of: B1
Assay: nonsense suppression (GFP-seq) (ratio to wild type); higher = more function; SUP4oc tRNA, yeast GFP reporter sort-seq
Method in brief: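 Raffinose/galactose medium with 80 mg/L adenine was used to grow yeast carrying genome-integrated tRNA variants (~3% random-mutation library), RFP, and a galactose-driven GFP ochre reporter. Cells went into GFP/RFP bins, which were Illumina-sequenced, and variants with ≥100 reads and ≥30 cells were scored. Nonsense suppression (GFPSEQ) is the per-bin median GFP/RFP weighted by estimated cell share and expressed relative to the unmutated parent tRNA.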
In the case of U21G U22C C27U A31G A33G, the nonsense suppression is reported as ≤ 0.026.
In the case of G19U U35G G69C, the nonsense suppression is reported as ≤ 0.026.
For U20G A24C G61A A87U, the nonsense suppression was ≤ 0.026.
For U20G U21C C56A G59U G85C, the nonsense suppression was ≤ 0.026.
In the case of U21A A24C C29G A33C C34U G67C, the nonsense suppression is reported as ≤ 0.026.
For U21G U58A G85A, the nonsense suppression was ≤ 0.026.
With U20C G28U G88A the nonsense suppression was ≤ 0.026.
With U20A A24C G65C C68U the nonsense suppression was ≤ 0.026.
In the case of U20G G61U, the nonsense suppression is reported as 0.874.
In the case of U20G G61C, the nonsense suppression is reported as 0.615.
With U21G U55C U57C G78C the nonsense suppression was ≤ 0.026.
U20G C29U showed a nonsense suppression of 1.12.
In the case of U20G C29U U57A C68G, the nonsense suppression is reported as ≤ 0.026.
In the case of U20C U22G G59U, the nonsense suppression is reported as ≤ 0.026.
In the case of U22A A33U, the nonsense suppression is reported as ≤ 0.026.
In the case of U20C G25U C27G G85C, the nonsense suppression is reported as ≤ 0.026.
In the case of U21G C83G, the nonsense suppression is reported as ≤ 0.026.
Work on U21G C83U yielded a nonsense suppression of 0.0839.
U21A A24U gave a nonsense suppression of 0.184.
For U21G A30U C83U, the nonsense suppression was ≤ 0.026.
In the case of U20G C34A, the nonsense suppression is reported as ≤ 0.026.
With U21A A30C G65A the nonsense suppression was ≤ 0.026.
In the case of U21C A23G, the nonsense suppression is reported as ≤ 0.026.
For U21A G65A G67C, the nonsense suppression was ≤ 0.026.
In the case of U20G U21C G26C C56U C68A, the nonsense suppression is reported as ≤ 0.026.
For U21A C29A C79U, the nonsense suppression was ≤ 0.026.
In the case of G19U C82A G86C, the nonsense suppression is reported as ≤ 0.026.
With U20G G65A U76G A87U the nonsense suppression was ≤ 0.026.
In the case of U20G A30G U71A, the nonsense suppression is reported as ≤ 0.026.
For U21A A24C U70G U76A G85A, the nonsense suppression was ≤ 0.026.
For G19U G61A U63C, the nonsense suppression was ≤ 0.026.
In the case of G19U U76G, the nonsense suppression is reported as ≤ 0.026.
For U21G G28A G67C G84C, the nonsense suppression was ≤ 0.026.
With U21C C80A the nonsense suppression was ≤ 0.026.
With U21A G66A the nonsense suppression was ≤ 0.026.
With G19U U57C the nonsense suppression was ≤ 0.026.
In the case of U21C U76C, the nonsense suppression is reported as 1.06.
In the case of U21C G73C, the nonsense suppression is reported as ≤ 0.026.
For U21C U71A C80A G84A, the nonsense suppression was ≤ 0.026.
Work on U20C A31G yielded a nonsense suppression of 0.0336.
With U21A U22A A23C G28U A60G G88U the nonsense suppression was ≤ 0.026.
In the case of U20A C34G C68A, the nonsense suppression is reported as ≤ 0.026.
Work on U21G G73U yielded a nonsense suppression of 0.026.
For U21A C81G, the nonsense suppression was ≤ 0.026.
In the case of U21A A54C G61A, the nonsense suppression is reported as 0.215.
For U22A A33U A89C, the nonsense suppression was ≤ 0.026.
For U21G C68A, the nonsense suppression was ≤ 0.026.
For U21G C68A A74G C81A, the nonsense suppression was ≤ 0.026.
In the case of U22A A23U A24G A62C, the nonsense suppression is reported as ≤ 0.026.
With U20G U58G A62C the nonsense suppression was ≤ 0.026.
In the case of U20C A30G U35C, the nonsense suppression is reported as ≤ 0.026.
With U20A U76C G85U the nonsense suppression was ≤ 0.026.
With G19U U71A the nonsense suppression was ≤ 0.026.
With U22A C27G U71C G73A C80G the nonsense suppression was ≤ 0.026.
For U20G G26U G85U, the nonsense suppression was ≤ 0.026.
For U20C C82G, the nonsense suppression was ≤ 0.026.
In the case of U20A G59U U76C, the nonsense suppression is reported as ≤ 0.026.
For U21G G32U A89C, the nonsense suppression was ≤ 0.026.
For U20G C27G, the nonsense suppression was ≤ 0.026.
For U21G A54G A62C U63A U71A C75U, the nonsense suppression was ≤ 0.026.
With U20A C34G G66A the nonsense suppression was ≤ 0.026.
For U21C C29A A87U, the nonsense suppression was ≤ 0.026.
For U20G A30C C64G G73U, the nonsense suppression was ≤ 0.026.
In the case of U20C C56G, the nonsense suppression is reported as ≤ 0.026.
For U20A U55C C82G, the nonsense suppression was ≤ 0.026.
For U21G A23C A24U G61A G85C, the nonsense suppression was ≤ 0.026.
With U20G G59U G88A the nonsense suppression was ≤ 0.026.
With U21C G66U the nonsense suppression was ≤ 0.026.
In the case of U21G C81A, the nonsense suppression is reported as ≤ 0.026.
U20A C75G G85U gave a nonsense suppression of 0.154.
With U21C G69A G84U the nonsense suppression was ≤ 0.026.
For U20C C79U G84U, the nonsense suppression was ≤ 0.026.
With U21A G65A the nonsense suppression was ≤ 0.026.
For U20A G59A, the nonsense suppression was ≤ 0.026.
In the case of U20A G59U, the nonsense suppression is reported as ≤ 0.026.
With U21C G28U A31U A33G G78U C79A the nonsense suppression was ≤ 0.026.
For U21G U35A U58C G61C, the nonsense suppression was ≤ 0.026.
In the case of U20A G28C U35C A54C C64U, the nonsense suppression is reported as ≤ 0.026.
For U20C U22G A30C A54G C56A G61C G85A, the nonsense suppression was ≤ 0.026.
For U20A U70C, the nonsense suppression was ≤ 0.026.
With G19U U20A U35A G61C the nonsense suppression was ≤ 0.026.
For U20C U21G G61A, the nonsense suppression was ≤ 0.026.
In the case of U21G A23G, the nonsense suppression is reported as ≤ 0.026.
